According to PubChem BioAssay AID743286 (National Center for Advancing Translational Sciences (NCATS), 2014):
Among all 1,100 compounds or so, about 340 (31%) were called active. Inconclusive means that the source gave no clear call. Such entries were picked first, then a sample of the others. Calls come from the whole dose curve; as a rule, active = well fitted inhibition curve with a large enough effect; inconclusive = small, poorly fitted or top-dose-only effect; inactive = flat fitted curve, though single readings scatter. Potencies beside an inconclusive call are fits to weak or partial responses and may not hold up.

Target: Phosphatidylinositol 5-phosphate 4-kinase type-2 alpha (Homo sapiens) (UniProt P48426)
Experiment: qHTS for Inhibitors of PI5P4K: Confirmation in Primary Assay; note: nearly all actives have a fitted effect of over 65% in size
Details: PI5P4Kalpha enzyme, ADP-Glo luminescence, 60 min; activity change, negative = inhibition: at 76.9 µM (top of the series)
In short: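 ADP-Glo luminescence end-point quantified ADP produced by PI5P4Kα after 60 min at room temperature with 5 microM ATP. Buffer: HEPES pH 7.4, EGTA, 0.1% CHAPS, 5% DMSO final; compounds added before ATP.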
% is set by controls: 0 for no effect and ±100 for the full control effect; potency is the fitted concentration of half-maximal effect; tags give direction and shape of the fitted curve.

Chain of UniProt P48426 (P48426 whole entry, looked up): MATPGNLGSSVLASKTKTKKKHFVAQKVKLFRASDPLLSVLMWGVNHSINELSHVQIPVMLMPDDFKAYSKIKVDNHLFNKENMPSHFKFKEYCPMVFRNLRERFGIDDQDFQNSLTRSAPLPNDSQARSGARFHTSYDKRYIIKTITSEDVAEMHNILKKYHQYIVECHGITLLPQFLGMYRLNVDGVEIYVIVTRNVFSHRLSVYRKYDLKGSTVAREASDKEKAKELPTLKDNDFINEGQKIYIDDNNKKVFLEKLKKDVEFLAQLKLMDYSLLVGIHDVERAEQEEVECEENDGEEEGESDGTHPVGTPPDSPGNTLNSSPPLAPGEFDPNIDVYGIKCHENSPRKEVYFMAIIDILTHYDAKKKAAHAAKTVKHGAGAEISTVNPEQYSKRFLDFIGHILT

Activity change, negative = inhibition, inactive:
COc1ccc(Br)cc1C(=O)Nc1cccc(NC(=O)c2ccco2)c1 -7.07%, O=C(CCNS(=O)(=O)c1ccc(Br)s1)NCc1ccccc1Cl 5.56%, Clc1ccc2nc(-c3ccco3)c(Cc3ccccc3)n2c1 -25.6%, O=C(CCS(=O)(=O)c1ccc2c(c1)NC(=O)CS2)NCCc1ccc(Cl)cc1 -2.61%, O=C(Nc1nnc(COc2ccc(Cl)cc2)s1)c1cccs1 -13.3%, N#Cc1ccc(COC(=O)CC(NC(N)=O)c2ccc(Cl)cc2)cc1 (stereo unspecified) -7.64%, COc1ccc(-c2cc(C(=O)Nc3ccccc3O)c3ccccc3n2)cc1 -1.85%, COc1ccccc1Cc1c(-c2ccco2)nc2cc(C)c(Br)c(C)n12 -23.8%, CN(Cc1cn(-c2ccccc2)nc1-c1cc2ccccc2o1)C(=O)CCC(=O)O -2.59%, O=C(NCCN1CCN(c2ccccc2)CC1)C1CCCN(S(=O)(=O)c2cnc[nH]2)C1 (stereo unspecified) 3.17%, CN(C(=O)c1ccc(Br)o1)C1CCS(=O)(=O)C1 (stereo unspecified) 6.38%, COc1ccc(C(=O)N2CCCC2(C)C(=O)O)cc1C(F)(F)F (stereo unspecified) -0.629%, COc1cc(Cn2c3ccc(NC(=O)CCc4ccccc4)cc3c(=O)n2C)ccc1F -2.41%, CCCNC(=O)CSc1nnc(-c2ccco2)n1C -0.997%, CCN(CC(=O)Nc1ccc(OC)cc1)C(=O)c1ccc([N+](=O)[O-])cc1 -0.54%, CC1CCCCN1C(=O)Cn1cnc2cc([N+](=O)[O-])ccc2c1=O (stereo unspecified) -5.4%, CSc1ncccc1C(=O)Nc1ccc(OC(F)(F)F)cc1 11.7%, CN(c1cccc(NC(=O)c2ccc(N(C)S(=O)(=O)c3ccccc3)cc2)c1)S(C)(=O)=O 2.47%, O=C(NC1CC1)c1ccc(NC(=O)C2CCC2)cc1 0.977%

Potency, inconclusive:
NC(=O)c1c(NC(=O)C2CC=CCC2C(=O)O)sc2c1CCCCC2 (stereo unspecified) 15.8 µM [inhibitor, partial curve], COc1cc(OC)c(C2CC(=O)N3CN(c4ccc(C)cc4)CSC3=C2C#N)cc1OC (stereo unspecified) 31.6 µM [inhibitor, partial curve, poor fit], CC(=O)Oc1ccc(C(=O)Nc2cccc(C(=O)c3ccc(C)c(C)c3)c2)cc1 4.47 µM [inhibitor, full curve], Cc1nnc(SCC(=O)Nc2sc3c(c2C(N)=O)CCC(C)C3)[nH]c1=O (stereo unspecified) 22.4 µM [inhibitor, partial curve], Cc1ccc(N2CSC3=C(C#N)C(c4cccs4)CC(=O)N3C2)cc1 (stereo unspecified) 12.6 µM [inhibitor, partial curve], Cc1ccc(NC(=O)C(C)OC(=O)c2cc(=O)[nH]c3ccccc23)cc1S(=O)(=O)N1CCOCC1 (stereo unspecified) 20 µM [inhibitor, partial curve], O=S(=O)(Nc1nccs1)c1cc(Cl)ccc1Cl 15.8 µM [inhibitor, partial curve], O=C(Nc1nc(-c2ccco2)c(-c2ccco2)s1)c1ccc(F)cc1F 14.1 µM [inhibitor, partial curve], O=C(c1ccc(=O)oc1)N1CCCc2ccccc21 35.5 µM [inhibitor, single point], Cc1cc(NC(=O)c2cc(S(=O)(=O)N3CCCCC3)ccc2C)no1 22.4 µM [inhibitor, partial curve], COc1cccc(CNC(=O)COC(=O)c2c(C)nn(-c3ccccc3)c2Cl)c1 20 µM [inhibitor, partial curve], Cc1cc(=O)n2[nH]c(-c3sccc3-n3c(C)ccc3C)cc2n1 31.6 µM [inhibitor, partial curve], CCS(=O)(=O)c1ccc2oc(Nc3ccc(C(C)C)cc3)nc2c1 7.08 µM [inhibitor, partial curve], O=C(Nc1nc(-c2ccccn2)cs1)C1CC(=O)N(c2ccc3c(c2)OCCO3)C1 (stereo unspecified) 5.62 µM [inhibitor, partial curve], Cc1cc(-c2csc(N)n2)c(C)n1C 28.2 µM [inhibitor, single point], CCOc1ccc(NC(=O)c2cc(=O)[nH]c3ccccc23)cc1 14.1 µM [inhibitor, partial curve], CCN(CC)C(=O)CC(c1cc(OC)c(OC)c(OC)c1)c1c(OC)cc(OC)c2c(-c3ccccc3)cc(=O)oc12 (stereo unspecified) 15.8 µM [inhibitor, partial curve], O=C(CNC(=O)c1cccc(OC(F)F)c1)OCc1cc(=O)n2cc(Br)ccc2n1 15.8 µM [inhibitor, partial curve], O=C(NCc1cccc(F)c1)Nc1nnc([C@H]2C[C@H](O)[C@@H](CO)O2)s1 25.1 µM [inhibitor, partial curve], CCN(CC)S(=O)(=O)c1ccc(C(=O)Nc2nnc(NC(=S)Nc3ccccc3)s2)cc1 11.2 µM [inhibitor, partial curve], CC(=O)Oc1ccc(C(=O)Nc2cccc(C(=O)Nc3ccccc3C(=O)O)c2)cc1 31.6 µM [inhibitor, partial curve], CCOC(=O)Cc1cc(=O)n2[nH]c(-c3ccccc3)c(-c3ccccc3)c2n1 14.1 µM [inhibitor, partial curve], COc1ccccc1NS(=O)(=O)c1ccc(C(=O)OCC(=O)NCc2ccco2)cc1 15.8 µM [inhibitor, partial curve], COc1ccc(Nc2nc(N)c(C(=O)c3ccc(F)cc3)s2)cc1 20 µM [inhibitor, partial curve], Cc1cc2oc(C(=O)Nc3ccc(S(=O)(=O)Nc4nccs4)cc3)cc(=O)c2cc1Cl 17.8 µM [inhibitor, partial curve], Nn1c(SCC(=O)NC(=O)NCc2ccco2)nnc1-c1ccc(OC(F)F)cc1 8.91 µM [inhibitor, partial curve], O=C(O)c1cccc(-n2cc(-c3cccc(C(F)(F)F)c3)cn2)c1 28.2 µM [inhibitor, partial curve], CC(=O)c1sc2nc(-c3ccco3)ccc2c1N 11.2 µM [inhibitor, partial curve], CCOc1ccccc1NC(=O)c1c(NC(=O)CCC(=O)O)sc2c1CCCCC2 22.4 µM [inhibitor, partial curve], CC(Nc1nc2ncn(Cc3ccccc3)c2c(=O)[nH]1)C(=O)O (stereo unspecified) 28.2 µM [inhibitor, partial curve], c1csc(CNc2nc(NCC3CCCCC3)c3sccc3n2)c1 39.8 µM [inhibitor, single point], COc1ccc(OC)c([N+](=O)[O-])c1C(N)=O 35.5 µM [inhibitor, partial curve], O=C(Cc1ccc(S(=O)(=O)N2CCOCC2)s1)NC1CCCCC1 15.8 µM [inhibitor, partial curve], Fc1ccc(Nc2nc(NCc3ccco3)c3ccccc3n2)cc1 39.8 µM [inhibitor, single point], O=C(Nc1ccc(S(=O)(=O)Nc2nccs2)cc1)c1cc(-c2ccncc2)nc2ccccc12 14.1 µM [inhibitor, partial curve], CC(=O)Nc1cc(NC(C)=O)cc(C(=O)N2CCCC3CCCCC32)c1 (stereo unspecified) 17.8 µM [inhibitor, partial curve], CCC1=Nc2cc(C(=O)O)ccc2Sc2ccccc21 20 µM [inhibitor, partial curve], CC(C(=O)Nc1cc([N+](=O)[O-])ccc1Cl)N1CCN(c2ccc(O)cc2)CC1 (stereo unspecified) 17.8 µM [inhibitor, partial curve], O=C(Nc1cc(S(=O)(=O)N2CCOCC2)ccc1N1CCCC1)c1ccc(Cl)cc1 35.5 µM [inhibitor, partial curve], COc1ccc(C(=O)NCc2nnc(SC)n2C2CCCCC2)cc1 15.8 µM [inhibitor, partial curve], COc1cccc(C(=O)OCC(=O)Nc2sc3c(c2C(N)=O)CCC3)c1O 12.6 µM [inhibitor, partial curve]

Potency, active:
Cc1ccc(-c2cc(C(=O)O)c3cc(Br)ccc3n2)o1 25.1 µM, O=C(NC(c1ccc(Cl)cc1)c1cc(Cl)c2cccnc2c1O)c1cccnc1 (stereo unspecified) 22.4 µM, NS(=O)(=O)c1ccc(NC(=O)c2ccc(S(=O)(=O)N3CCc4ccccc43)cc2)cc1 14.1 µM, Cc1cc2[nH]c3c4ccccc4nc(C)c3c2cc1C 28.2 µM, N#Cc1cc(-c2ccccc2)nn1-c1ccccc1 10 µM, Cc1ccc(NC(=O)c2cccc(C(=O)Nc3ccc(C)cc3C(=O)O)c2)c(C(=O)O)c1 8.91 µM, COc1ccc(N2CSC3=C(C#N)C(c4cccc(OC)c4OC)CC(=O)N3C2)cc1 (stereo unspecified) 7.08 µM, COCCOC(=O)c1[nH]c2c(c1C)C(=O)CC(c1ccco1)C2 (stereo unspecified) 15.8 µM, Cc1csc(NC(=O)CSc2sc3c(O)cc(=O)[nH]c3c2C#N)n1 14.1 µM, Cc1cccc(NC(=O)CNC(=O)c2cccc(-n3cccc3)c2)c1C 6.31 µM, Cc1ccc(C(CCN(Cc2ccccc2)C(=O)c2ccco2)c2ccco2)cc1 (stereo unspecified) 14.1 µM
